Measured values as given in publication PMC4336329 (PLoS ONE, 2015).
Out of some 310,000 compounds screened, about 2,200 (0.71%) showed an effect of 50% or more. Effects have a minus sign here. Some of the results follow. Where a SMILES comes first, the peptide text is derived from it. The star is where a group is joined. OBn = c1ccc(CO*)cc1

Biological target: human ether-à-go-go-related gene (hERG) potassium channel (human, UniProt Q12809)
Experiment: primary screen, population patch clamp on CHO cells stably expressing hERG

Chain of human ether-à-go-go-related gene (hERG) potassium channel (Q12809 whole entry, looked up): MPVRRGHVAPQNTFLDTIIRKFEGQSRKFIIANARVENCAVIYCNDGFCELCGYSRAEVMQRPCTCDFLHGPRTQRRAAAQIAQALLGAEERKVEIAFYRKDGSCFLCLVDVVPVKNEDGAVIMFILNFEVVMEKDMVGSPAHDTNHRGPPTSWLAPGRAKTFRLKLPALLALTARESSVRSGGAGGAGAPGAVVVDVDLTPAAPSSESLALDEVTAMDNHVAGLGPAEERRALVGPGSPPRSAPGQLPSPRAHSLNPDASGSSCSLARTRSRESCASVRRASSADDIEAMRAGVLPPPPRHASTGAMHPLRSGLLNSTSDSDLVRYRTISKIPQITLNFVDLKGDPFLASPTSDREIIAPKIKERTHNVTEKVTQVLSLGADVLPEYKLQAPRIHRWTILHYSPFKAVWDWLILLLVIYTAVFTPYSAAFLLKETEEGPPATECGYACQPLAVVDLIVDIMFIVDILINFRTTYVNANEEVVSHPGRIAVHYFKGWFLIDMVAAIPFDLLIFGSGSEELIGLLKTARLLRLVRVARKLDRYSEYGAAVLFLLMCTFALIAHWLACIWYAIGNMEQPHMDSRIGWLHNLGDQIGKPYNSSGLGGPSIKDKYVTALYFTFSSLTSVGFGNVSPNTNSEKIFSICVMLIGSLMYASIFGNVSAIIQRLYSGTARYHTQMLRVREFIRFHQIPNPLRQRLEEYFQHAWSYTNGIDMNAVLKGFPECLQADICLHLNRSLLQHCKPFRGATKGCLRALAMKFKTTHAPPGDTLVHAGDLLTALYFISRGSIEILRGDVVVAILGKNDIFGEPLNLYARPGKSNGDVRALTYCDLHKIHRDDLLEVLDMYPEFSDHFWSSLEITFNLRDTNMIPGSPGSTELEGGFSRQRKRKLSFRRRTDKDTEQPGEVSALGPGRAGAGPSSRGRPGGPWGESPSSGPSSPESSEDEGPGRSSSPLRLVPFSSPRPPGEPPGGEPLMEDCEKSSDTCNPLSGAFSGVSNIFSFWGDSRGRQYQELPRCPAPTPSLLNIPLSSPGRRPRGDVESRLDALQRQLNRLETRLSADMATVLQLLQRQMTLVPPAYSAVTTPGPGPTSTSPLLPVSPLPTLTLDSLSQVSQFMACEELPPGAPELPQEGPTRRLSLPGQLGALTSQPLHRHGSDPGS

SMILES	hERG current change (%, negative = inhibition) at 1uM [%]
CN(C)c1ccc(P(=O)(Nc2ccc([N+](=O)[O-])cc2)N2CCOCC2)c(NC(=O)c2cccs2)c1 (stereo not shown)	12.4
CC(C)NC(=O)COC(=O)CNC(=O)c1cc(Cl)cc([N+](=O)[O-])c1	3.77
CSc1nc(C)cc(C)c1S(=O)(=O)c1ccccc1C	16.2
CC(C)C[C@H](NC(=O)c1nc[nH]c1C(=O)NC1CC[NH2+]CC1)C(=O)OCc1ccccc1.[Cl-]	13.1
CC(C)(C)c1ccc(C(=O)N2CCNC(=O)C2CC(=O)Nc2ccc(F)cc2)cc1 (stereo not shown)	11.2
C/C(=N\NC(=O)C1(C)CC1(Br)Br)c1ccc(NC(=O)C2CCC2)cc1 (stereo not shown)	6.57
C[C@H](NC(=O)c1nc[nH]c1C(=O)N[C@H](C)c1ccccc1)C(=O)OC(C)(C)C	10.7
CC(=O)c1sc2c(c1OC(=O)c1ccc(Cl)cc1Cl)c(=O)n(-c1ccccc1)c(=S)n2-c1ccccc1	16
Cn1c(Cn2c(=O)sc3ccccc32)nnc1SCC(=O)N1CCCCCC1	-1.82
C#CCOc1c(Br)cc(/C=N\NC(=O)CN2CCOCC2)cc1OCC	4.89
COc1ccc(N=Nc2c(N)n[nH]c2N)cc1	11.4
COC(=O)c1sc(N)nc1C(C)(C)C	6.99
COc1ccc(CNC(=O)CN(Cc2ccccc2OC)C(=O)c2csnn2)cc1	5.06
N#CC1=C(O)CCCn2c1nc1ccccc1c2=O	11.3
CCN(CC)S(=O)(=O)c1cccc(C(=O)NC(Cc2c[nH]c3ccccc23)c2nnc3n2CCC3)c1 (stereo not shown)	11.2
COc1ccc(-c2nn(-c3ccccc3)cc2C(=O)N(C)C)cc1	-2.64
O=C(CNC(=O)c1ccco1)N/N=C/c1ccc(O)c([N+](=O)[O-])c1	17.7
CCCCN1C(=O)c2ccc(C(=O)Nc3ccc(S(=O)(=O)N(C)C)cc3)cc2C1=O	2.47
Cn1nnc(NC(=O)c2cccs2)n1	6.92
O=C(COC(=O)c1ccc(O)cc1O)NC12CC3CC(CC(C3)C1)C2	5.76
Cc1ccc(CCC(=O)Nc2ccc(S(N)(=O)=O)cc2)o1	12.4
COc1cccc(/C=N/NC(=O)CCc2c(C)n[nH]c2C)c1	21.3
CCOC(=O)c1nnn(-c2nc(N(C)C)nc(N(C)C)n2)c1C	11.9
Cn1cnc([N+](=O)[O-])c1SCC(O)CCl (stereo not shown)	6.77
CCc1nnc(NC(=O)c2ccc(-c3ccc([N+](=O)[O-])cc3Cl)o2)s1	14.1
COc1ccc(OC)c(NC(=O)NCCc2c[nH]c3ccccc23)c1	13.4
Cc1ccc(CN2CCSc3ccc(C(=O)NCc4cccnc4)cc32)cc1	1.31
O=C(Nc1ccccc1N1CCN(C(=O)c2ccc(Cl)cc2)CC1)c1cccc(F)c1	-81.2

SMILES	hERG current change (%, negative = inhibition) at 1uM [%]
CCCCN(C)C(=O)C1CCN(CCCc2ccccc2)CC1.O=C(O)C(=O)O	-73.6
CC(=O)N=c1sc2cc(C)ccc2n1C	16.4
Cc1ccc(C2C(C(=O)c3sc(C)nc3C)=C(O)C(=O)N2CCN(C)C)o1 (stereo not shown)	9.83
COc1ccc(S(=O)(=O)N2CCCOC2CNC(=O)C(=O)NCCCn2ccnc2)cc1OC (stereo not shown)	11.6
COc1ccc(OC)c(S(=O)(=O)NCCc2csc(-c3cccnc3)n2)c1	4.87
Cc1ccc(N(CC(=O)Nc2ccc(-c3nc4ccc(C)cc4s3)cc2)S(C)(=O)=O)cc1	9.66
COC(=O)c1cc(C)cc(=O)o1	7.43
COc1cc(OC)c(OC)cc1CN1CCCC(C(=O)c2sccc2C)C1 (stereo not shown)	-25.5
O=C(c1cc(-c2cccc(O)c2)on1)N1CCN(C(c2ccccc2)c2ccccc2)CC1	7.39
COc1nnc(-c2ccc(N3CCOCC3)c(NC(C)=O)c2)c2ccccc12	5.8
Cc1cc(CN(C)C(=O)CC2C(=O)NCCN2Cc2c(F)cccc2Cl)on1 (stereo not shown)	12.7
Cn1c(=O)c2sccc2n2c(CCCC(=O)NCc3cccnc3)nnc12	15.5
OC(CCc1ccncc1)COc1ccccc1 (stereo not shown)	9.33
Cc1ccc(NC(=O)CN2C(=O)CCSc3ccc(S(=O)(=O)N4CCCC4)cc32)cc1	19
Cc1nc2c(C(=O)O)cnn2c(C)c1Cc1ccccc1F	4.96
Cc1ccccc1NC(=O)Nc1cnccn1	4.46
CN(CC(=O)NCCc1ccc(S(N)(=O)=O)cc1)Cc1c(F)cccc1Cl	10.8
CCC(C)C(N)C(=O)NC(CCC(=O)OCc1ccccc1)C(N)=O.Cl (stereo not shown) (H-Ile-Glu(OBn)-NH2; configuration not given here)	17.2
CN(C)/C(=N\S(=O)(=O)c1ccccc1)c1ccc(F)cc1	16.1
CSc1nc(C)cc(Oc2ccc(OCCOc3ccccc3)nn2)n1	-2.37
CN1CCOCCOCCN(C)C1=O	9.62
Cc1ccc(S(=O)(=O)Oc2ccc(C(c3c(C)[nH][nH]c3=O)c3c(C)[nH][nH]c3=O)cc2)cc1	-1.65
CCc1cc(C(=O)N=Nc2c(O)[nH]c3ccc([N+](=O)[O-])cc23)c2ccccc2n1	8.07
Cc1nn(-c2ccccc2)c(Cl)c1C(=O)NNC(=O)c1ccncc1	8.68
OCCC1CCCCN1CC(O)COCc1ccc(Cl)cc1 (stereo not shown)	16.5
CN1CCN(CCCNC(=O)Nc2ccc([N+](=O)[O-])cc2)CC1	-3.49
Cc1cccnc1NC(=O)C1COc2ccccc2O1 (stereo not shown)	16
